# Results published in the supplement of paper PMC8728848.
# The other results are listed elsewhere or left out.
# B1: Cohesin-marm-DC-ASGPR (protein)
# chain: LDITSHHHHHHDDLDAVRIKVDTVNAKPGDTVRIPVRFSGIPSKGIANCDFVYSYDPNVLEIIEIEPGDIIVDPNPDKSFDTAVYPDRKIIVFLFAEDSGTGAYAITKDGVFATIVAKVKEGAPNGLSVIKFVEVGGFANNDLVEQKTQFFDGGVNVGDTTEPATPTTPVTTPTTTDDLDAASSKFQRDLVTLRTDFSNFTSNTLAEIQALTSQGSSLQETIASLKAEVEGHKQELQAGASELQEHNKQKAHLGRCPHTCVCPSSFVCVPVHSEILLRVQQLVQDLNKLSCQVAILKNNATTERTCCPINWVEHQGSCYWFSRSGKTWPEAERYCQLENTHLVVINSREEQNFVQAHLGSAYTWMGLSDPEGVWKWVDGTDYSSGFQNWKPGQPDDWQGHGLGGGEDCAHFHPDGRWNDDVCQRSYHWVCEAGLTQASQDSHAS
# Columns and labels:
# Test in all cases: glycan array binding signal (z-score within array); higher = stronger binding
# Settings in all cases: glycan notation: IUPAC condensed, linker removed
# [1] = biological target: Kdn(a2-3)Gal(b1-4)Glc
# Summary of the method: (§1)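 Columns mapping to the same glycan were averaged after glycan names were converted to IUPAC-condensed notation. The data come from 3228 arrays in the Consortium for Functional Glycomics database, limited to those with an available protein sequence. Binding is reported as a within-array Z-score averaged across arrays of one protein sequence and across linkers.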
# [2] = biological target: Kdn(a2-3)Gal(b1-4)GlcNAc
# Summary of the method: as §1
# [3] = biological target: Kdn(a2-3)Gal(b1-4)[Fuc(a1-3)]GlcNAc
# Summary of the method: as §1
# [4] = biological target: Kdn(a2-6)Gal(b1-4)GlcNAc
# Summary of the method: as §1
# [5] = biological target: Man(a1-2)Man(a1-2)Man(a1-3)Man
# Summary of the method: as §1
# [6] = biological target: Man(a1-2)Man(a1-2)Man(a1-6)[Man(a1-3)]Man
# Summary of the method: as §1
# [7] = biological target: Man(a1-2)Man(a1-3)Man
# Summary of the method: as §1
# [8] = biological target: Man(a1-2)Man(a1-3)[Man(a1-2)Man(a1-6)]Man
# Summary of the method: as §1
# [9] = biological target: Man(a1-2)Man(a1-3)[Man(a1-2)Man(a1-6)]Man(a1-6)[Man(a1-2)Man(a1-2)Man(a1-3)]Man
# Summary of the method: as §1
# [10] = biological target: Man(a1-2)Man(a1-3)[Man(a1-2)Man(a1-6)]Man(a1-6)[Man(a1-2)Man(a1-2)Man(a1-3)]Man(b1-4)GlcNAc(b1-4)GlcNAc
# Summary of the method: as §1
# [11] = biological target: Man(a1-2)Man(a1-3)[Man(a1-6)]Man(a1-6)[Man(a1-2)Man(a1-3)]Man(b1-4)GlcNAc(b1-4)GlcNAc
# Summary of the method: as §1
# [12] = biological target: Man(a1-2)Man(a1-6)[Man(a1-3)]Man(a1-6)[Man(a1-2)Man(a1-2)Man(a1-3)]Man
# Summary of the method: as §1
# [13] = biological target: Man(a1-2)Man(a1-6)[Man(a1-3)]Man(a1-6)[Man(a1-2)Man(a1-2)Man(a1-3)]Man(b1-4)GlcNAc(b1-4)GlcNAc
# Summary of the method: as §1
# [14] = biological target: Man(a1-3)[Man(a1-6)]Man
# Summary of the method: as §1
# [15] = biological target: Man(a1-3)[Man(a1-6)]Man(a1-6)[Man(a1-2)Man(a1-3)]Man(b1-4)GlcNAc(b1-4)GlcNAc
# Summary of the method: as §1
# [16] = biological target: Man(a1-3)[Man(a1-6)]Man(a1-6)[Man(a1-3)]Man
# Summary of the method: as §1
# [17] = biological target: Man(a1-3)[Man(a1-6)]Man(a1-6)[Man(a1-3)]Man(b1-4)GlcNAc(b1-4)GlcNAc
# Summary of the method: as §1
# [18] = biological target: Man(a1-3)[Man(a1-6)]Man(b1-4)GlcNAc(b1-4)GlcNAc
# Summary of the method: as §1
# [19] = biological target: Man(a1-3)[Man(a1-6)]Man(b1-4)GlcNAc(b1-4)[Fuc(a1-6)]GlcNAc
# Summary of the method: as §1
# [20] = biological target: Man(a1-6)Man
# Summary of the method: as §1
# [21] = biological target: Man(b1-4)GlcNAc
# Summary of the method: as §1
# [22] = biological target: MurNAc(b1-4)GlcNAc
# Summary of the method: as §1
# [23] = biological target: Neu5Ac(a2-3)Gal
# Summary of the method: as §1
# [24] = biological target: Neu5Ac(a2-3)Gal(b1-3)GalNAc
# Summary of the method: as §1
# [25] = biological target: Neu5Ac(a2-3)Gal(b1-3)GalNAc(b1-3)Gal(a1-4)Gal(b1-4)Glc
# Summary of the method: as §1
# [26] = biological target: Neu5Ac(a2-3)Gal(b1-3)GalNAc(b1-4)[Neu5Ac(a2-3)]Gal(b1-4)Glc
# Summary of the method: as §1
# [27] = biological target: Neu5Ac(a2-3)Gal(b1-3)GalNAc(b1-4)[Neu5Ac(a2-8)Neu5Ac(a2-3)]Gal(b1-4)Glc
# Summary of the method: as §1
# [28] = biological target: Neu5Ac(a2-3)Gal(b1-3)GalNAc6S
# Summary of the method: as §1
# [29] = biological target: Neu5Ac(a2-3)Gal(b1-3)GlcNAc
# Summary of the method: as §1
# [30] = biological target: Neu5Ac(a2-3)Gal(b1-3)GlcNAc(b1-2)Man
# Summary of the method: as §1
# [31] = biological target: Neu5Ac(a2-3)Gal(b1-3)GlcNAc(b1-2)Man(a1-3)[GlcNAc(b1-4)][Neu5Ac(a2-3)Gal(b1-3)GlcNAc(b1-2)Man(a1-6)]Man(b1-4)GlcNAc(b1-4)GlcNAc
# Summary of the method: as §1
# [32] = biological target: Neu5Ac(a2-3)Gal(b1-3)GlcNAc(b1-2)Man(a1-3)[Neu5Ac(a2-3)Gal(b1-3)GlcNAc(b1-2)Man(a1-6)]Man(b1-4)GlcNAc(b1-4)GlcNAc
# Summary of the method: as §1
# [33] = biological target: Neu5Ac(a2-3)Gal(b1-3)GlcNAc(b1-3)Gal(b1-3)GlcNAc
# Summary of the method: as §1
# [34] = biological target: Neu5Ac(a2-3)Gal(b1-3)GlcNAc(b1-3)Gal(b1-4)GlcNAc
# Summary of the method: as §1
# [35] = biological target: Neu5Ac(a2-3)Gal(b1-3)GlcNAc(b1-3)GalNAc
# Summary of the method: as §1
# [36] = biological target: Neu5Ac(a2-3)Gal(b1-3)GlcNAc(b1-4)Gal(b1-4)Glc
# Summary of the method: as §1
# [37] = biological target: Neu5Ac(a2-3)Gal(b1-3)GlcNAc(b1-6)GalNAc
# Summary of the method: as §1
# [38] = biological target: Neu5Ac(a2-3)Gal(b1-3)GlcNAc6S
# Summary of the method: as §1
binder,measurement,setting,value
B1,glycan array binding signal (z-score),[1],-0.297
same,glycan array binding signal (z-score),[2],-0.305
same,glycan array binding signal (z-score),[3],-0.287
same,glycan array binding signal (z-score),[4],-0.299
same,glycan array binding signal (z-score),[5],-0.117
same,glycan array binding signal (z-score),[6],-0.281
same,glycan array binding signal (z-score),[7],-0.257
same,glycan array binding signal (z-score),[8],-0.305
same,glycan array binding signal (z-score),[9],-0.308
same,glycan array binding signal (z-score),[10],-0.296
same,glycan array binding signal (z-score),[11],-0.31
same,glycan array binding signal (z-score),[12],-0.216
same,glycan array binding signal (z-score),[13],-0.287
same,glycan array binding signal (z-score),[14],-0.238
same,glycan array binding signal (z-score),[15],-0.288
same,glycan array binding signal (z-score),[16],-0.272
same,glycan array binding signal (z-score),[17],-0.3
same,glycan array binding signal (z-score),[18],-0.305
same,glycan array binding signal (z-score),[19],-0.31
same,glycan array binding signal (z-score),[20],0.424
same,glycan array binding signal (z-score),[21],-0.3
same,glycan array binding signal (z-score),[22],-0.304
same,glycan array binding signal (z-score),[23],-0.267
same,glycan array binding signal (z-score),[24],-0.309
same,glycan array binding signal (z-score),[25],-0.304
same,glycan array binding signal (z-score),[26],-0.268
same,glycan array binding signal (z-score),[27],-0.299
same,glycan array binding signal (z-score),[28],-0.245
same,glycan array binding signal (z-score),[29],-0.301
same,glycan array binding signal (z-score),[30],-0.263
same,glycan array binding signal (z-score),[31],-0.307
same,glycan array binding signal (z-score),[32],-0.258
same,glycan array binding signal (z-score),[33],-0.296
same,glycan array binding signal (z-score),[34],-0.311
same,glycan array binding signal (z-score),[35],-0.302
same,glycan array binding signal (z-score),[36],-0.303
same,glycan array binding signal (z-score),[37],3.74
same,glycan array binding signal (z-score),[38],-0.277
